This is one part of the list. These are enrichments in a pooled selection; single values are uncertain.
T1: TERF1_TRF__P54274_58_268
T1 chain: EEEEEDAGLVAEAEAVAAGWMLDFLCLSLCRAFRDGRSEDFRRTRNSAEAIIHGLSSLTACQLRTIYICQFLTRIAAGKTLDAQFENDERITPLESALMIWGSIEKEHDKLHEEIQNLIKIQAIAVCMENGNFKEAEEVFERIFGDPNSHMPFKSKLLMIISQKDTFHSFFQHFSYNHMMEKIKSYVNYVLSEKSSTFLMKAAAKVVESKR

T2: TLN1_PTB__Q9Y490_309_401
T2 chain: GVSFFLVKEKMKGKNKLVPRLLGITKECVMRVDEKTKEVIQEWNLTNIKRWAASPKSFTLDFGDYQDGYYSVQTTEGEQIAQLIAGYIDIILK

T3: TLN2_PTB__Q9Y4G6_312_417
T3 chain: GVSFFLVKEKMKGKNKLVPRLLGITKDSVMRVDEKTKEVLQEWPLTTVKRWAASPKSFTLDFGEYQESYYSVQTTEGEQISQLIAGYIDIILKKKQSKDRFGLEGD

T4: ZMYND11_coiled-coil-MYND__Q15326_480_602
T4 chain: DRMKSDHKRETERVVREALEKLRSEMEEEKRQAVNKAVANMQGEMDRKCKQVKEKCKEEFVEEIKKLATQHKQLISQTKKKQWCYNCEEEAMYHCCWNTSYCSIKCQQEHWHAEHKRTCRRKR

B1: TTN 26221-26236 wt (peptide)
chain: EPPLPPGRVTLVDVTR
B2: CSNK1E 34-49 mut P48730.T44A (peptide)
chain: EVAIKLEAVKAKHPQL
B3: RYR1 4544-4559 wt (peptide)
chain: ELEVQRVKFLNYLSRN
B4: TSC2 1262-1277 mut P49815.S1276F (peptide)
chain: KPPPLPRSNTVASFFS
B5: TMEM67 1-16 mut Q5HYA8.V9M (peptide)
chain: MATRGGAGMAMAVWSL
B6: EPAS1 538-553 mut Q99814.F540L (peptide)
chain: EDLQLSPIAPEERLLA
B7: BRCA2 773-788 wt (peptide)
chain: PTSKDVLSNLVMISRG
B8: MYPN 833-848 wt (peptide)
chain: VLPSLPAIPPTNAMGL
B9: RET 1051-1066 mut P07949.M1064T (peptide)
chain: ALPSTWIENKLYGTSD
B10: RET 1051-1066 mut P07949.L1052V (peptide)
chain: AVPSTWIENKLYGMSD
B11: BRCA2 773-788 mut P51587.T774A (peptide)
chain: PASKDVLSNLVMISRG
B12: AGPAT2 162-177 wt (peptide)
chain: RENLKVWIYPEGTRND
B13: GLI2 1550-1565 mut P10070.S1555P (peptide)
chain: SLTLPPIPAGISNMAV
B14: RET 1051-1066 mut P07949.L1061P (peptide)
chain: ALPSTWIENKPYGMSD
B15: CHD4 1244-1259 wt (peptide)
chain: SSVIHYDDKAIERLLD
B16: CSNK1D 34-49 mut P48730.T44A (peptide)
chain: EVAIKLEAVKAKHPQL
B17: EPAS1 538-553 wt (peptide)
chain: EDFQLSPIAPEERLLA
B18: SCN2A 1422-1437 mut P35498.Q1427P (peptide)
chain: YLSLLPVATFKGWMDI
B19: LDLR 4-19 mut P01130.L16P (peptide)
chain: WGWKLRWTVALLPAAA
B20: WFS1 550-565 wt (peptide)
chain: ESTGLGLLRASIGYFL
B21: RET 1055-1070 mut P07949.M1064T (peptide)
chain: TWIENKLYGTSDPNWP
B22: CREBBP 866-881 mut Q92793.T872S (peptide)
chain: MPSLQHSTPPGMTPPQ
B23: SCN4A 1422-1437 mut P35498.Q1427P (peptide)
chain: YLSLLPVATFKGWMDI
B24: PIEZO2 2345-2360 mut Q9H5I5.T2356M (peptide)
chain: TELRAVMDWVWMDTTL
B25: BRCA2 773-788 mut P51587.D777G (peptide)
chain: PTSKGVLSNLVMISRG
B26: ANKRD11 2137-2152 wt (peptide)
chain: SLPELPLQTKDAADGE
B27: ATF7IP 432-447 mut Q6VMQ6.E434G (peptide)
chain: TDGIIPILEKLAPSED
B28: DSP 974-989 wt (peptide)
chain: TLLNIPIKRTMIQSPS

molecular target: Src_SH3__P12931_87_144; experiment: mean normalised NGS count of phage-displayed peptide after selection on bait (% of reads); baits are purified protein domains named by gene / domain / UniProt id / residues; peptides come from disordered regions of human proteins; higher = stronger enrichment / binding; conditions: replicate selections in which the peptide was seen: 5

Binder | mean normalised NGS count
B1 | 0.0433
B8 | 0.676
B13 | 3.8
B26 | 0.873

molecular target: WDR5_WD_1234567_P61964_21_334; experiment: as above; conditions: replicate selections in which the peptide was seen: 2

Binder | mean normalised NGS count
B2 | 0.875
B5 | 0.0679
B16 | 0.875
B19 | 0.41
B28 | 0.111

Molecular target: T1, TERF1_TRF__P54274_58_268
Experiment: as above
Conditions: replicate selections in which the peptide was seen: 6

Binder | mean normalised NGS count
B3 | 0.362

molecular target: Src_SH3__P12931_87_144; experiment: as above; conditions: replicate selections in which the peptide was seen: 6

Binder | mean normalised NGS count
B4 | 0.494

Molecular target: T1, TERF1_TRF__P54274_58_268
Experiment: as above
Conditions: replicate selections in which the peptide was seen: 2

Binder | mean normalised NGS count
B6 | 0.0376
B15 | 13.6

molecular target: WDR5_WD_1234567_P61964_21_334; experiment: as above; conditions: replicate selections in which the peptide was seen: 4

Binder | mean normalised NGS count
B7 | 2.05
B20 | 1.09

Molecular target: T2, TLN1_PTB__Q9Y490_309_401
Experiment: as above
Conditions: replicate selections in which the peptide was seen: 6

Binder | mean normalised NGS count
B9 | 2.72
B10 | 32

Molecular target: T3, TLN2_PTB__Q9Y4G6_312_417
Experiment: as above
Conditions: replicate selections in which the peptide was seen: 6

Binder | mean normalised NGS count
B9 | 1.83

Same assay, conditions: replicate selections in which the peptide was seen: 5

Binder | mean normalised NGS count
B10 | 0.751

molecular target: WDR5_WD_1234567_P61964_21_334; experiment: as above; conditions: replicate selections in which the peptide was seen: 3

Binder | mean normalised NGS count
B11 | 0.174

Molecular target: T3, TLN2_PTB__Q9Y4G6_312_417
Experiment: as above
Conditions: replicate selections in which the peptide was seen: 3

Binder | mean normalised NGS count
B12 | 0.00406
B21 | 1.12

Molecular target: T2, TLN1_PTB__Q9Y490_309_401
Experiment: as above
Conditions: replicate selections in which the peptide was seen: 5

Binder | mean normalised NGS count
B14 | 0.0603

Molecular target: T1, TERF1_TRF__P54274_58_268
Experiment: as above
Conditions: replicate selections in which the peptide was seen: 3

Binder | mean normalised NGS count
B17 | 26
B18 | 0.263
B23 | 0.263

Molecular target: T2, TLN1_PTB__Q9Y490_309_401
Experiment: as above
Conditions: replicate selections in which the peptide was seen: 4

Binder | mean normalised NGS count
B21 | 6.69

Molecular target: T4, ZMYND11_coiled-coil-MYND__Q15326_480_602
Experiment: as above
Conditions: replicate selections in which the peptide was seen: 2

Binder | mean normalised NGS count
B22 | 0.0056
B27 | 0.0055

Molecular target: T3, TLN2_PTB__Q9Y4G6_312_417
Experiment: as above
Conditions: replicate selections in which the peptide was seen: 4

Binder | mean normalised NGS count
B24 | 14.3

molecular target: WDR5_WD_1234567_P61964_21_334; experiment: as above; conditions: replicate selections in which the peptide was seen: 5

Binder | mean normalised NGS count
B25 | 4.19
